# According to PMC4336329 (PLoS ONE, 2015):
# Hit rate of the full screen: of about 310,000 compounds, about 14,000 (4.5%) showed an effect of 50% or more. Effects have a minus sign here. The list shows a part of the results.
# Target: human ether-à-go-go-related gene (hERG) potassium channel (human, UniProt Q12809)
# Assay: primary screen, population patch clamp on CHO cells stably expressing hERG
# 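Further: peak tail current of the secondary pulse compared with the same well before compound.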
# Sequence of human ether-à-go-go-related gene (hERG) potassium channel (Q12809 whole entry, looked up): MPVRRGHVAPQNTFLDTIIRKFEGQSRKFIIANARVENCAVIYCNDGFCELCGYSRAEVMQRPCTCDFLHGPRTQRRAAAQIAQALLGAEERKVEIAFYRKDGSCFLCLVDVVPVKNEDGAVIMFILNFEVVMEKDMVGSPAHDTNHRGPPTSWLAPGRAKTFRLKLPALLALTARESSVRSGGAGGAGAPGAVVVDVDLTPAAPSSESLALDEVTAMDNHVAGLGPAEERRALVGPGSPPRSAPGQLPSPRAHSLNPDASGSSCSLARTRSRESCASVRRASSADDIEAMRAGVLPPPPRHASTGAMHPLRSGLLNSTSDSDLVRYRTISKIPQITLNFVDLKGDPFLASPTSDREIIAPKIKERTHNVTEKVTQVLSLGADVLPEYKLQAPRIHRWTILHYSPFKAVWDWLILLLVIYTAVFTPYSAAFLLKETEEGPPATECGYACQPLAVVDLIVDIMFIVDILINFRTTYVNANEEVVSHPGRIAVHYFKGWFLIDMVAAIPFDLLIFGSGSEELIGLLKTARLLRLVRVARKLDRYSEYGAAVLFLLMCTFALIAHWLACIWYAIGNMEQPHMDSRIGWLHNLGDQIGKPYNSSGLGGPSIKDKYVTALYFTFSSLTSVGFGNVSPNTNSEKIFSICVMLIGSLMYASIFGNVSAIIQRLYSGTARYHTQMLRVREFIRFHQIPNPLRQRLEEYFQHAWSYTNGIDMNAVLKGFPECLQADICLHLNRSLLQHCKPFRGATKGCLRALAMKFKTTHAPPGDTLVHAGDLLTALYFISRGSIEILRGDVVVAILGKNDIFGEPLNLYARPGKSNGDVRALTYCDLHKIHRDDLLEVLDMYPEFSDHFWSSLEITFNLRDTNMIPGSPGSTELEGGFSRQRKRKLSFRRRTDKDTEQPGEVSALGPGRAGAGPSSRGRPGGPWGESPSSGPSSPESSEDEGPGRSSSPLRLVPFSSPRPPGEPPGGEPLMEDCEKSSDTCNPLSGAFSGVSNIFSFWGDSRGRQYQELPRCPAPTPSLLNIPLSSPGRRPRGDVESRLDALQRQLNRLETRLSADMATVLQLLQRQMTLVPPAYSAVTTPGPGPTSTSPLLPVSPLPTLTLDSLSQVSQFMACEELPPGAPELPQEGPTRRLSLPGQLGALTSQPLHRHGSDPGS
row,SMILES,"hERG current change (%, negative = inhibition) at 10uM"
1,O=C(NCC(c1cccs1)N1CCOCC1)c1cn(-c2ccccc2)nc1-c1ccc(F)cc1 (stereo not shown),-1.67%
2,O=C(NC1CCCc2ccccc21)c1ccc(S(=O)(=O)N2CCOCC2)cc1 (stereo not shown),-4.41%
3,C/C(=N\Nc1ccccn1)c1cccs1,10.6%
4,Cc1ccc2[nH]cc(/C=C/c3cc[n+](C)cc3)c2c1.[I-],-5.51%
5,CC(=O)Nc1ccc(S(=O)(=O)Nc2cc3c(cc2C(C)=O)OCO3)cc1,20.7%
6,COC(=O)c1sc(S(=O)(=O)NC(Cc2ccccc2)C(=O)O)c(C(=O)OC)c1C (stereo not shown),1.57%
7,CCOc1ccccc1N(C)C(=O)c1cc2c(=O)n(CC)c3ccccc3c2s1,-6.11%
8,O=C(CSc1nc(=O)n2ccccc2n1)Nc1ccc2c(c1)OCCO2,-17.9%
9,COC(=O)[C@H](C)NC(=O)NC(C)CCc1ccccc1 (stereo partly shown),-3.35%
10,COC(=O)C1=C(N)Oc2cc(C)[nH]c(=O)c2C1c1ccc(Cl)cc1 (stereo not shown),-15.3%
11,CCOC(=O)C1=C(C)N(C)C(=S)NC1c1cccc(Cl)c1Cl (stereo not shown),-3.3%
12,Oc1ccc(-c2nc3ccccc3s2)c(O)c1,26.8%
13,O=C(Nc1ccccc1)c1ccc(NC(=O)C2CC2)cc1,2.57%
14,CC1=C(C(=O)OC(C)C)C(c2ccccc2Cl)CC(=O)N1 (stereo not shown),7.66%
15,N#CCCN1CCNCC1,13.1%
16,CCCCNC(=O)c1ccccc1NC(=O)c1ccccc1N(C)S(C)(=O)=O,-0.037%
17,CCCCNC(=O)CSc1nnc(-c2cccc(S(=O)(=O)N3CCOCC3)c2)o1,-18.1%
18,CN1C(=O)/C(=C2\SC(N)=NC2=O)c2ccccc21,8.44%
19,Cc1ccc(NC(=O)CCc2nnc3ccc(N4CCC5(CC4)OCCO5)nn23)cc1F,-12.7%
20,O=c1[nH]c(CN2CCc3ccccc32)nc2scc(-c3cccs3)c12,0.482%
21,CC1CCCC(NC(=O)NC(=O)COC(=O)C2=NN(c3ccccc3)C(=O)CC2)C1C (stereo not shown),0.805%
22,COc1ccccc1CNC(=O)C1CCC(=O)N(CCCc2ccccc2)C1 (stereo not shown),-9.31%
23,CC(=O)N1CCCN(Cc2cn(-c3ccc(C)cc3)nc2-c2ccc(F)cc2)CC1,-30.3%
24,Nc1nc(-c2ccco2)nn1C(=O)c1ccc([N+](=O)[O-])cc1,13.4%
25,COCCNC(=O)C(=O)Nc1ccc(Cl)cc1C,2.84%
26,CCN(CC)CCNC(=O)c1cc2cc3ccc(OC)cc3nc2o1,-18%
27,C=CCn1c(SCc2ccc(F)cc2)nnc1-c1sc2nc(C)cc(C)c2c1N,-1.46%
28,CCOC(=O)N1CCC(NC(=O)C(Cc2ccccc2)NC(=O)C2CCCCC2)CC1 (stereo not shown),0.496%

row,SMILES,"hERG current change (%, negative = inhibition) at 10uM"
1,Cc1[nH]c(=O)c(C#N)c(C)c1Cc1ccc(Cl)cc1Cl,24.5%
2,COc1ccccc1N/N=C/c1c(CO)cnc(C)c1O.Cl,0.579%
3,COC(=O)COc1ccc(S(=O)(=O)Nc2ccc(C(N)=O)cc2)cc1C,19.1%
4,COc1ccccc1-c1nnc2n1N=C(C(C)(C)C)CS2,-11.5%
5,O=C(NCCCCc1ccccc1)C1CC(c2cccc([N+](=O)[O-])c2)=NO1 (stereo not shown),-38.6%
6,CCn1c(C)[n+](CCOC(C)=O)c2cc(Cl)c(Cl)cc21.[I-],-8.87%
7,Cc1cccc(C)c1NS(=O)(=O)c1ccc(F)cc1,-7.71%
8,COc1ccccc1OCC(=O)Nc1ccc(S(=O)(=O)N2CCCC2)cc1,-22.5%
9,O=C1CN(C(=S)NC(=O)c2ccccc2[N+](=O)[O-])CCN1,16.9%
10,C#Cc1ccc([C@@H]2C=C(C(=O)N3CCOCC3)O[C@H](OCCCCO)C2)cc1,17.3%
11,O=c1cc(-c2ccc(O)cc2)oc2c([C@@H]3O[C@H](CO)[C@@H](O)[C@H](O)[C@H]3O)c(O)c([C@@H]3O[C@H](CO)[C@@H](O)[C@H](O)[C@H]3O)c(O)c12,11.8%
12,Cc1oc2c(C)c3oc(=O)c(CCC(=O)N[C@@H](CC(C)C)C(=O)O)c(C)c3cc2c1C,13.4%
13,Cc1cc(C(=O)NC2CCCC2)c2ccccc2n1,9.7%
14,FC(F)(F)c1cccc(Nc2nc(N3CCOCC3)nc(N3CCOCC3)n2)c1,15.6%
15,CCOc1ccc(OCC)c(NC(=O)C2CCN(S(=O)(=O)c3c(C)noc3C)CC2)c1,-3.97%
16,Cc1cccc(N2CCN(CC(=O)N(C3CCCC3)C3CCS(=O)(=O)C3)CC2)c1C (stereo not shown),-13.3%
17,O=C(OCC(=O)N1CCN(S(=O)(=O)c2ccc(Cl)cc2)CC1)C1CCC1,11.8%
18,Cc1oc(S(=O)(=O)N2CCCC2)cc1C(=O)Nc1ccccc1,7.38%
19,C[N+]1(C)CCN(c2ccccc2)CC1.[I-],14.2%
20,CCCn1nnc(NC(=O)Cc2ccccc2)n1,7.77%
21,Cc1cccc(N(C(=O)CCC(=O)Nc2cc(C)on2)C(C(=O)NC2CCCC2)c2ccncc2)c1 (stereo not shown),18.7%
22,COc1cccc(C(=O)NC2CC3CCC(C2)N3Cc2ccccc2)c1 (stereo not shown),-28.7%
23,COc1cccc(NC(=O)CC2S/C(=N\S(=O)(=O)c3ccccc3)N(c3ccccc3)C2=O)c1 (stereo not shown),-4.09%
24,Cc1nc2ccccc2c(=O)n1NC(=O)c1cccc([N+](=O)[O-])c1,6.56%
25,COc1ccc(C2C(C#N)=C(N)N3C(=C2C#N)Sc2ccccc23)cc1 (stereo not shown),8.81%
26,CCOC(=O)C1=C(N)Oc2cc(O)ccc2C1c1cccc(Cl)c1 (stereo not shown),-2.49%
27,COc1ccc(-c2noc(-c3ccoc3C)n2)cc1OC,17.9%
